Several values for one entry are separate records, joined by “and”; a condition that tells them apart may be missing. Equal entries are not always repeated. The whole screen tested about 120,000 compounds, of which about 5,300 (4.4%) were called active. The shares of active, inactive and inconclusive entries below differ from those in the screen. The call rests on the fitted dose curve; in most records, active means well fitted inhibition curve with a large enough effect; inconclusive means small, poorly fitted or top-dose-only effect; inactive means no such curve, though single readings can be large or run the other way. Potencies beside an inconclusive call are fits to weak or partial responses and may not hold up.
Assay: qHTS Primary assay for Inhibitors of Plasmodium falciparum Dd2 growth in vitro; further: nearly all actives have a fitted effect of over 65% in size;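 on activity, negative = inhibition: plate controls were DMSO vehicle for no effect and reference drug for full effect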
Conditions: P. falciparum Dd2 growth, SYBR Green, 72 h; activity, negative = inhibition: at 28.9 µM (top of the series) unless noted; series mostly up to 28.9 µM
Procedure, shortened: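 Readout: SYBR Green fluorescence, 485 nm excitation, 535 nm emission, after ~16 h lysis at 37C. Before that, Dd2-infected red cells (2.5% hematocrit) grew 72 h with compound, 29 uM top final concentration.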
Potency means the concentration at half of the fitted maximal effect; tags describe the fitted curve by direction and shape.

| SMILES | Potency | activity, negative = inhibition | outcome |
| --- | --- | --- | --- |
| CCn1nc(C)c(CN2CCC(n3nccc3NC(=O)CCCc3ccccc3)CC2)c1C | inconclusive: 10 µM [inhibitor, single point] | – | – |
| O=C1NCCCCCCN(C(=O)c2ccoc2)[C@H]2C[C@H](c3nc(Cc4ccccc4)no3)C[C@@H]12 | inconclusive: 2 µM [inhibitor, partial curve, poor fit] | – | – |
| O=C(c1cccc(Cl)c1)N1CCC(c2nn(-c3ccc(F)cc3)c(=O)[nH]2)CC1 | inconclusive: 20 µM [inhibitor, single point] and inconclusive: 17.8 µM [inhibitor, single point] | – | – |
| COCC1CN(S(=O)(=O)Cc2ccccc2)CC12CCNCC2 (stereo not drawn) | inconclusive: 2.51 µM [inhibitor, partial curve, poor fit] | – | – |
| N#Cc1ccc(-c2cccs2)nc1SCC(=O)Nc1cccc(C(F)(F)F)c1 | inconclusive: 4.47 µM [inhibitor, partial curve, poor fit] | – | – |
| O=C1NCCCCCCN(C(=O)CCc2ccccc2)[C@H]2CCCC[C@@H]12 | inconclusive: 11.2 µM [inhibitor, single point] | – | – |
| O=C(NCC1Cn2cccc2C(=O)N1Cc1ccccc1)c1n[nH]c(=O)c2ccccc12 (stereo not drawn) | inconclusive: 15.8 µM [inhibitor, single point] | – | – |
| CCN(CC)CCOC(=O)c1ccc(NC(=O)c2cc3c(=O)n(CC)c4ccccc4c3s2)cc1 | active: 0.794 µM | – | – |
| COc1nc2nc(CCc3ccccc3)n(C)c2cc1-c1ccnc(C)c1 | inconclusive: 10 µM [inhibitor, partial curve, poor fit] | – | – |
| COCCC(=O)N[C@@H]1CN(c2ccncn2)C[C@H]1CO | – | inactive: 1.49% | – |
| CCN1CCN(Cc2c(O)ccc3c(C)c(-c4ccc(OC)cc4)c(=O)oc23)CC1 | active: 5.01 µM | – | – |
| COc1ccccc1C1c2c(-c3ccc(Cl)cc3)n[nH]c2C(=O)N1c1ccc(C)cc1 (stereo not drawn) | inconclusive: 3.16 µM [inhibitor, full curve] | – | – |
| Cc1cc(S(=O)(=O)N2CCN(Cc3noc(CCC(=O)N4CCCCC4)n3)CC2)ccc1F | inconclusive: 11.2 µM [inhibitor, single point] | – | – |
| CCOc1ccc(CN(CCc2ccc3c(c2)OCO3)Cc2cccc(C)c2)cc1 | inconclusive: 17.8 µM [inhibitor, single point] | – | – |
| COCCN1CCOC[C@H]2CCN(C(=O)c3cccc4[nH]ccc34)C[C@H]21 | – | – | inactive |
| COc1cccc2sc(N(Cc3cccnc3)C(=O)c3ccc4c(c3)OCCO4)nc12 | inconclusive: 11.2 µM [inhibitor, single point] | – | – |
| O=C1NCc2ccccc2CC12CCN(Cc1cnc3ccccc3c1)C2 (stereo not drawn) | – | inactive: -20% | – |
| COc1ccc(C2NC(=O)N(C)C3=C2C(=O)N(c2ccc(Br)cc2)C3)cc1 (stereo not drawn) | inconclusive: 17.8 µM [inhibitor, single point] | – | – |
| CCCc1noc(-c2ccn3c(CNC(=O)Cc4cccc(OC)c4)nnc3c2)n1 | inconclusive: 17.8 µM [inhibitor, single point] | – | – |
| COc1cccc(S(=O)(=O)N2CCC3(CC2)CC(N(C)Cc2ccccc2)CCO3)c1 (stereo not drawn) | inconclusive: 0.447 µM [inhibitor, full curve, poor fit] | – | – |
| O=C(Cc1cccc(Cl)c1)N1[C@H]2CC[C@@H]1c1cnc(-c3ccccc3)nc1C2 | inconclusive: 1.41 µM [inhibitor, full curve, poor fit] | – | – |

| SMILES | Potency | activity, negative = inhibition | outcome |
| --- | --- | --- | --- |
| COCc1ccc(CN2CCCC(C(=O)Nc3cccc(-n4cccn4)c3)C2)o1 (stereo not drawn) | inconclusive: 10 µM [inhibitor, single point] | – | – |
| CCCNC(=O)N1CC(c2noc(C3CCCN3CC3CC3)n2)C1 (stereo not drawn) | inconclusive: 12.6 µM [inhibitor, single point] | – | – |
| Cc1ccsc1CN1CCC(C(=O)N2CCCCCCNC(=O)CC2)CC1 | inconclusive: 0.178 µM [inhibitor, full curve, poor fit] | – | – |
| CN(Cc1cc(-c2cccnc2)no1)C(=O)C1COc2ccccc2C1 (stereo not drawn) | inconclusive: 0.0631 µM [inhibitor, full curve, poor fit] | – | – |
| CC1(c2ccccc2)CCCN(Cc2nnc(-c3cccnc3)o2)C1 (stereo not drawn) | – | – | inactive |
| CCn1nc(C)c(CN2CCC3(CC2)CN(c2ccncn2)CC3CO)c1C (stereo not drawn) | – | inactive: 5.88% | – |
| COc1ccc(CNC(=O)c2ccc3nc(C(C)C)oc3c2)cc1OC | inconclusive: 17.8 µM [inhibitor, single point] | – | – |
| O=C(c1ccccc1F)N1CCC2(CC1)CN(Cc1ccccc1)CC2CO (stereo not drawn) | inconclusive: 8.91 µM [inhibitor, single point] | – | – |
| CCCNC(=O)NCC1c2cc(OC)c(OC)cc2CCN1C(=O)NC(C)C (stereo not drawn) | inconclusive: 3.98 µM [inhibitor, partial curve, poor fit] | – | – |
| COc1ccc(-c2nc(-c3nnn4c3COC(c3ccc(C)cc3)C4)no2)cc1F (stereo not drawn) | – | inactive: 48.5% | – |
| COc1cc(=O)n2c(c1C(=O)Nc1ccc(C)c(Cl)c1)CCCC2 | – | inactive: 45.9% | – |
| c1c[nH]c(-c2nc3ccncc3[nH]2)c1 | active: 22.4 µM and inconclusive: 39.8 µM [inhibitor, single point] | – | – |
| CO[C@H]1[C@H](NC(=O)CC(C)C)c2ccccc2C12CCNCC2 | – | inactive: 19.5% | – |
| O=C1CCN(S(=O)(=O)c2ccccc2)CCCN(Cc2cn[nH]c2-c2ccc(F)cc2)CCN1 | inconclusive: 10 µM [inhibitor, single point] | – | – |
| Cc1nc2cccnc2n1-c1cccc(C(=O)NCCc2ccc(S(N)(=O)=O)cc2)c1 | inconclusive: 17.8 µM [inhibitor, single point] | – | – |
| O=C(Cc1ccc(F)cc1)N1CCOc2ccc(CN3CCc4ccccc4C3)cc2C1 | inconclusive: 1.26 µM [inhibitor, partial curve, poor fit] | – | – |
| COc1ccccc1CC(=O)N1CCC(n2cc(-c3nc(-c4ccccc4)no3)nn2)CC1 | inconclusive: 2.82 µM [inhibitor, single point] | – | – |
| COc1ccc(Cn2c(C3CCN(C(=O)C(C)c4ccccc4)CC3)n[nH]c2=O)cc1 (stereo not drawn) | – | inactive: -10.5% | – |
| COCCCNC(=O)CSc1nc(-c2ccc(OC)c(OC)c2)[nH]c1-c1ccc(F)cc1 | – | inconclusive: -87.2% [inhibitor] [at 5.79 µM] | – |
| CC[C@@H]1[C@@H](NC(=O)C2(c3ccc(S(C)(=O)=O)cc3)CCC2)[C@@H]2CCO[C@H]12 | active: 8.91 µM | – | – |
| CN(C)C[C@@H]1CN(c2ccccn2)C[C@H]1NC(=O)c1cccs1 | inconclusive: 8.91 µM [inhibitor, partial curve, poor fit] | – | – |

| SMILES | Potency | activity, negative = inhibition | outcome |
| --- | --- | --- | --- |
| Cc1cccc(C(=O)Nc2ccc(S(=O)(=O)N(Cc3ccccc3)c3ccccc3)cc2)c1 | inconclusive: 12.6 µM [inhibitor, single point] | – | – |
| CNC(=O)c1cnn2c1CN(C(=O)c1ccccc1F)CC2 | – | inactive: 39.2% | – |
| CCn1cc(CN2CC[C@H]3C(=O)NCCCCCCN(Cc4ccncc4)[C@@H]3C2)cn1 | inconclusive: 17.8 µM [inhibitor, single point] | – | – |
| O=C1CC2(CCN([S+](=O)([O-])c3cccs3)CC2)Oc2ccccc2N1c1ccccc1 | – | inactive: -1.3% | – |
| C=C[C@H]1CN2CC[C@H]1C[C@@H]2CNCc1ccccc1 | inconclusive: 8.91 µM [inhibitor, partial curve, poor fit] | – | – |
| COc1cc(NC(=O)NCCN2CCN(c3ccccc3)CC2)cc(OC)c1OC | inconclusive: 8.91 µM [inhibitor, single point] | – | – |
| COc1ccc(C(=O)NCCn2cc(SC(C)c3ccccc3)c3ccccc32)cc1OC (stereo not drawn) | inconclusive: 5.01 µM [inhibitor, partial curve, poor fit] | – | – |
| COCCOC(=O)C1=C(C)N=C2SC=C(CC(=O)N3CCCC3)N2C1c1cccc(F)c1 (stereo not drawn) | inconclusive: 2.82 µM [inhibitor, single point] | – | – |
| Cc1nc(-c2ccc(F)cc2)n(CC(=O)Nc2ccc(C(F)(F)F)cc2)c(=O)c1CCO | inconclusive: 2.82 µM [inhibitor, partial curve, poor fit] | – | – |
| CCc1cccc(Nc2ncncc2-c2nc(-c3ccccc3)no2)c1 | – | inactive: -6.48% | – |
| CC(=O)c1ccc(NC(=O)O[C@@H]2CO[C@H]3[C@@H]2OC[C@@H]3n2nnnc2-c2ccc(-c3ccccc3)cc2)cc1 | – | inactive: -0.129% | – |
| COc1ccc(OC)c(CN2CCNc3cc(Nc4ccccc4)ncc3C2)c1 | active: 3.55 µM | – | – |
| COCCN1CCCC2(CCN(Cc3cc(-c4ccccc4)no3)C2)C1=O (stereo not drawn) | – | inactive: -11% | – |
| COc1ccc(C(=O)Nc2cccc(-c3nnc4n3CCCC4)c2)cc1 | active: 10 µM | – | – |
| CCOc1ccc(CCNC(=O)c2cc3c(s2)-c2c(C)cccc2OC3)cc1 | inconclusive: 3.16 µM [inhibitor, single point] | – | – |
| CCOc1ccc(C(=O)N2CCC3(CC2)C(=O)N(CC)c2ccccc23)cc1OCC | inconclusive: 14.1 µM [inhibitor, single point] | – | – |
| CS(=O)(=O)N(Cc1cccnc1)C1CN(C(=O)c2cc3ccccc3[nH]2)C1 | inconclusive: 17.8 µM [inhibitor, single point] | – | – |
| CNC(=O)N1CCC(C2CCN(C(=O)c3ccc4ccccc4n3)C2)CC1 (stereo not drawn) | inconclusive: 11.2 µM [inhibitor, single point] | – | – |
| Cc1noc(-c2cn(C3CCN(C(=O)c4ccc(Cl)s4)CC3)nn2)n1 | inconclusive: 10 µM [inhibitor, single point] | – | – |
| CCc1ccc(NC(=O)Nc2nnc(N(C)C3CCCCC3)s2)cc1 | – | – | inactive |
| CN1CC(=O)N(C2CCCNCC2)Cc2c1ncnc2N1CCC(N2CCCCC2)CC1 (stereo not drawn) | – | inconclusive: -105% [inhibitor] | – |
